Test results taken from PubChem BioAssay AID686979 (National Center for Advancing Translational Sciences (NCATS), 2013).
Screen size: about 420,000 compounds; about 50,000 (12%) were called active. Inconclusive means that the source gave no clear call. Such entries were picked first, then a sample of the others. The call rests on the fitted dose curve; in most records, active means well fitted inhibition curve with a large enough effect; inconclusive means small, poorly fitted or top-dose-only effect; inactive means flat fitted curve, though single readings scatter. Potencies of inconclusive entries are left out as doubtful fits.

assay: qHTS for Inhibitors of human tyrosyl-DNA phosphodiesterase 1 (TDP1): qHTS in cells in presence of CPT; conditions: chicken DT40 Tdp1-/-;hTDP1 cells + 20 nM CPT, ATP luminescence, 48 h; activity change, negative = growth inhibition: at 46.2 µM (top of the series); further: nearly all actives have a fitted effect of over 55% in size
How it was run: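 Chicken DT40 Tdp1-/- cells stably complemented with human TDP1 were seeded at 400 cells/well in medium containing 20 nM camptothecin, exposed to pin-transferred compounds, and grown at 37 °C for at least 48 hr. Viability was read as ATP luminescence.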
On the % scale 0 is the no-effect control and ±100 the full control effect; potency means the concentration at half of the fitted maximal effect; tags describe the fitted curve by direction and shape.

Compound | Potency | activity change, negative = growth inhibition
CCN(CC)C(=O)Cn1cc(C(=O)C(=O)N2CCN(c3ccc([N+](=O)[O-])cc3)CC2)c2ccccc21 | active: 6.51 µM | –
COc1cc(Cl)c(C)cc1NC(=O)CNC(=O)Cn1cnc2ccccc2c1=O | – | inactive: -13.5%
FC(F)Oc1ccc(NC(=S)NCc2ccco2)cc1Cl | inconclusive [inhibitor, single point] | –
O=C(O)c1ccc2c(=O)[nH]c(CCl)nc2c1 | inconclusive [inhibitor, full curve, poor fit] | –
CCCCn1nc(NC(=O)c2cccs2)c2cc3cc(OC)ccc3nc21 | active: 18.4 µM | –
CC(C)C[C@@H](C)C(=O)N(Cc1ccccc1)c1ccccc1 | – | inconclusive: -31.5% [inhibitor]
CCN(CC)S(=O)(=O)c1ccc(C(=O)NCCSc2c(-c3ccc(OC)cc3)[nH]c3ccccc23)cc1 | active: 7.31 µM | –
Cn1c(C(=O)NC2CCCCCC2)cc2c(=O)n(C)c3ccccc3c21 | active: 14.6 µM | –
COc1ccccc1NC(=O)C1=C(C)Nc2nc(SCc3ccccc3Cl)nn2C1c1ccncc1 (stereo not drawn) | – | inactive: -1.23%
O=C(c1cccnc1)N1CCN(Cc2ccccc2Br)CC1 | inconclusive [inhibitor, partial curve] | –
Cc1ccccc1-c1cc(=O)c2c(O)cccc2o1 | inconclusive [inhibitor, single point] | –
Cc1ccccc1-n1cc[nH]c1=S | – | inactive: 11.5%
COc1ccc(/C=C/C(=O)C(C(N)=O)=C2SCCS2)cc1 | inconclusive [inhibitor, single point] | –
N#Cc1ccc(C(=O)OCC(=O)Nc2ccc(N3CCOCC3)cc2)cc1 | – | inactive: 11.8%
COc1ccc(NC(=S)NCC(c2cccnc2)N2CCOCC2)cc1 (stereo not drawn) | – | inactive: 20.9%
Cc1ccc(C(=O)Nc2ccc3c(c2)CCC3)cc1S(=O)(=O)N1CCOCC1 | inconclusive [inhibitor, single point] | –
Cc1cc(-c2ccc(C(C)C)c(S(=O)(=O)NCc3ccco3)c2)on1 | inconclusive [inhibitor, single point] | –
Cc1cccc(Nc2c([N+](=O)[O-])ccc3nonc23)c1C | – | inactive: -3.17%
Fc1ccc2c(c1)C(c1cccnc1)=NNC(c1cccs1)=N2 | inconclusive [inhibitor, single point] | –
O=S(=O)(N/N=C1/CC(c2ccccc2)Oc2ccccc21)c1ccc(Br)cc1 (stereo not drawn) | inconclusive [inhibitor, single point] | –
CC(=O)c1c(N2CCN(Cc3ccc4c(c3)OCO4)CC2)nc(=S)n(-c2ccccc2)c1C | inconclusive [inhibitor, single point] | –
CC(=O)Nc1ccc(S(=O)(=O)N2CCN(C(=O)c3ncoc3-c3ccc(C)cc3)CC2)cc1 | – | inactive: -6.32%
CCOc1ccccc1Oc1coc2cc(OC(=O)c3ccco3)ccc2c1=O | – | inactive: -27%
CN(C)C(=O)c1c(NC(=O)c2ccco2)sc2c1CCCCC2 | inconclusive [inhibitor, single point] | –
COc1ccc(N(C(=O)c2cccnc2)S(=O)(=O)c2ccc(OC)c(OC)c2)cc1 | – | inactive: -24.6%

Compound | Potency | activity change, negative = growth inhibition
CC(O)(c1cccc(F)c1)c1nc(-c2ccc(Cl)cc2)cs1 (stereo not drawn) | inconclusive [inhibitor, single point] | –
Cc1c(CNC(=O)C2CC2)c(-n2cccc2)n(Cc2ccccc2)c1C | – | inactive: -14.4%
O=C(NNc1ccc([N+](=O)[O-])cc1)Nc1ccccc1 | – | inactive: 0.709%
N#C/C(=C(/O)CN1CCN(c2ccccc2F)CC1)c1nc(-c2ccccc2)cs1 | inconclusive [inhibitor, single point] | –
COc1cccc(S(=O)(=O)NCc2ccc(C(=O)N3CCN(C)CC3)cc2)c1 | – | inactive: -0.46%
O=S1(=O)c2ccc(Br)cc2N2CCC[C@@H]2CN1C1CC1 | inconclusive [inhibitor, single point] | –
O=C(CN1C(=O)C2(SCC(=O)N2c2ccc(F)cc2)c2ccccc21)NCCc1ccccc1 (stereo not drawn) | inconclusive [inhibitor, single point] | –
NC(=O)c1cccn1Cc1ccccc1Cl | inconclusive [inhibitor, single point] | –
O=C(CCCNS(=O)(=O)c1ccc(Cl)c(Cl)c1)NCCc1ccccn1 | – | inconclusive: -30.3% [inhibitor]
COc1ccc(NC(=O)CCSc2nc(-c3ccco3)cc(C(F)(F)F)n2)cc1OC | inconclusive [inhibitor, single point] | –
Cc1ccc(-c2noc(C3CCCN(C(=O)c4ccccc4Br)C3)n2)cc1 (stereo not drawn) | inconclusive [inhibitor, single point] | –
CCn1c(C)nc([N+](=O)[O-])c1C(=O)O | – | inactive: 3.08%
O=C(COc1cccc2c1CCNC2=O)Nc1cccc(C(F)(F)F)c1 | active: 8.2 µM | –
CCc1ccc(OCCSc2nc(-c3cccc(C)c3)nc3cc(=O)[nH]n23)cc1 | active: 23.1 µM | –
CCc1cc(=O)oc2c(C)c(OC(C)C(=O)NCCCn3ccnc3)ccc12 (stereo not drawn) | – | inactive: -7.04%
Fc1ccccc1Nc1nc(NCc2ccco2)nc(N2CCOCC2)n1 | inconclusive [inhibitor, single point] | –
CCOC(=O)c1c(CSc2ccccc2)oc2cc(Br)c(O)c(CN(C)C)c12 | active: 16.4 µM | –
C=CCn1c(=NC(=O)c2ccco2)sc2cc(C(=O)OC)ccc21 | inconclusive [inhibitor, single point] | –
O=C(Nc1cnccn1)c1ccc(Cl)cc1 | – | inactive: -5.02%
Cc1ccc(-c2noc(C3CCCN(C(=O)c4cccc(F)c4)C3)n2)cc1 (stereo not drawn) | inconclusive [inhibitor, single point] | –
CCCCN(CCCC)C(=O)CSc1nnc(-c2cc(OC)c(OC)c(OC)c2)o1 | active: 17.8 µM | –
CCn1c(CN2CCCCC2)nc2cc(S(=O)(=O)N3CCCCC3)ccc21 | inconclusive [inhibitor, partial curve, poor fit] | –
Cc1cc(C)cc(Nc2cc(C(=O)NCc3ccccc3)c3ccccc3n2)c1 | active: 23.1 µM | –
O=C(Nc1nnc(COc2ccc(Cl)cc2)s1)C1CCCO1 (stereo not drawn) | inconclusive [inhibitor, single point] | –
CCC(=O)c1ccc(OCC(=O)Nc2ccccc2C(=O)N2CCCCC2)cc1 | inconclusive [inhibitor, partial curve, poor fit] | –

Compound | Potency | activity change, negative = growth inhibition
O=c1[nH]c(N/N=C/c2ccccc2Br)nnc1-c1ccccc1 | active: 14.6 µM | –
COC(=O)COc1cccc2c(=O)n(CC(=O)NCCc3ccccc3)ccc12 | – | inactive: -3.48%
COc1cccc(Cn2c(=O)cnc3cnc(OC)nc32)c1 | – | inactive: 6.05%
Cc1ccc2cc(CN(CCN3CCOCC3)C(=O)NCc3ccccc3)c(=O)[nH]c2c1C | inconclusive [inhibitor, single point] | –
Cc1ccc(CS(=O)Cc2ccc(C(=O)NCc3ccccc3Br)o2)cc1 (stereo not drawn) | inconclusive [inhibitor, partial curve, poor fit] | –
C#CCn1cc(/C=C2\NC(=O)NC2=O)c2ccccc21 | inconclusive [inhibitor, single point] | –
O=C(c1ccccc1F)N1CCC2CC1c1cc(-c3ccc4c(c3)OCO4)ccc12 (stereo not drawn) | inconclusive [inhibitor, single point] | –
COc1ccc(/C=C2/SC(=O)N(CCNC(=O)C3CC(=O)N(Cc4ccccc4)C3)C2=O)cc1 (stereo not drawn) | inconclusive [inhibitor, single point] | –
CN(CCC#N)C(=S)NC(=O)c1ccc(S(=O)(=O)N2CCOCC2)cc1 | – | inactive: 6.79%
Cc1cc(C)c(NC(=O)C(C)n2nnc3sc(-c4ccccc4)cc3c2=O)c(C)c1 (stereo not drawn) | inconclusive [inhibitor, single point] | –
CCOc1cc(CNCCSc2nnnn2-c2ccccc2)ccc1OC | active: 11.6 µM | –
CCc1noc(C)c1C(=O)Nc1nc(-c2ccc(F)cc2)c(C)s1 | inconclusive [inhibitor, single point] | –
COc1ccc(CNC(=O)C(c2cccs2)N(Cc2ccco2)C(=O)Cc2cccs2)cc1 (stereo not drawn) | inconclusive [inhibitor, single point] | –
Cc1ccc(CCS(=O)(=O)c2ccc(C(C)(C)C)cc2)cn1 | inconclusive [inhibitor, single point] | –
CN1CCN(CCCNC(=O)c2ccc3c(c2)N(Cc2ccc(F)cc2)CCS3)CC1 | active: 16.4 µM | –
NC(=S)NN=C1CCCCCCCCCC1 | active: 3.66 µM | –
CC(C)N1CC2(CC(c3ccccc3C(F)(F)F)=NO2)CN1C(=O)c1ccco1 (stereo not drawn) | inconclusive [inhibitor, single point] | –
CCOC(=O)[C@]12CCCC=C1N(Cc1cccc3ccccc13)C(=O)[C@H](CC(=O)NCCc1ccccc1OC)C2 | inconclusive [inhibitor, single point] | –
O=S(=O)(c1ccc(OCC2CO2)cc1)c1ccc(OCC2CO2)cc1 (stereo not drawn) | active: 1.84 µM | –
Cc1cccc(NC(=O)Nc2ccc([N+](=O)[O-])cc2)n1 | – | inactive: -3.97%
O=C(NC(c1ccc(-c2ccccc2)cc1)c1cnccn1)C1CCN(CCOc2ccc(F)cc2)CC1 (stereo not drawn) | inconclusive [inhibitor, single point] | –
O=C(CCCOc1ccccc1)Nc1cccnc1 | – | inactive: -2.21%
COc1ccc2ccc(C(C)(C(C)=O)C(=O)OC(C)C)cc2c1 (stereo not drawn) | inconclusive [inhibitor, partial curve] | –
